In all, about 16,000 compounds went through this assay and about 120 (0.75%) were called active. Another 4% or so got no clear call; they are omitted. Calls come from the whole dose curve; as a rule, active = well fitted inhibition curve with a large enough effect; inconclusive = small, poorly fitted or top-dose-only effect; inactive = no such curve, though single readings can be large or run the other way. Some of the results follow.

The target in the assay is Rap guanine nucleotide exchange factor 3 (Homo sapiens) (UniProt O95398). Kind of assay: Validation qHTS for antagonist of cAMP-regulated guanine nucleotide exchange factor 3 (EPAC1).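 Note: plate controls were DMSO for no effect and ATA control for full effect; nearly all actives have a fitted effect of over 75% in size.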 The settings on record: EPAC1 Rap1B-BODIPY-GDP exchange, fluorescence; series mostly up to 150 µM; activity change, negative = inhibition: at the top concentration. The gist of the method: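 Nucleotide exchange followed as fluorescence loss when BODIPY-GDP leaves Rap1B (480 nm excitation, 540 nm emission), read at 5 min intervals over 30 min. Reaction: 100 nM EPAC1, 250 nM RAP1B-BODIPY-GDP, 50 uM GDP; ATA and DMSO define normalization.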
Sequence of UniProt O95398 (O95398 whole entry, looked up): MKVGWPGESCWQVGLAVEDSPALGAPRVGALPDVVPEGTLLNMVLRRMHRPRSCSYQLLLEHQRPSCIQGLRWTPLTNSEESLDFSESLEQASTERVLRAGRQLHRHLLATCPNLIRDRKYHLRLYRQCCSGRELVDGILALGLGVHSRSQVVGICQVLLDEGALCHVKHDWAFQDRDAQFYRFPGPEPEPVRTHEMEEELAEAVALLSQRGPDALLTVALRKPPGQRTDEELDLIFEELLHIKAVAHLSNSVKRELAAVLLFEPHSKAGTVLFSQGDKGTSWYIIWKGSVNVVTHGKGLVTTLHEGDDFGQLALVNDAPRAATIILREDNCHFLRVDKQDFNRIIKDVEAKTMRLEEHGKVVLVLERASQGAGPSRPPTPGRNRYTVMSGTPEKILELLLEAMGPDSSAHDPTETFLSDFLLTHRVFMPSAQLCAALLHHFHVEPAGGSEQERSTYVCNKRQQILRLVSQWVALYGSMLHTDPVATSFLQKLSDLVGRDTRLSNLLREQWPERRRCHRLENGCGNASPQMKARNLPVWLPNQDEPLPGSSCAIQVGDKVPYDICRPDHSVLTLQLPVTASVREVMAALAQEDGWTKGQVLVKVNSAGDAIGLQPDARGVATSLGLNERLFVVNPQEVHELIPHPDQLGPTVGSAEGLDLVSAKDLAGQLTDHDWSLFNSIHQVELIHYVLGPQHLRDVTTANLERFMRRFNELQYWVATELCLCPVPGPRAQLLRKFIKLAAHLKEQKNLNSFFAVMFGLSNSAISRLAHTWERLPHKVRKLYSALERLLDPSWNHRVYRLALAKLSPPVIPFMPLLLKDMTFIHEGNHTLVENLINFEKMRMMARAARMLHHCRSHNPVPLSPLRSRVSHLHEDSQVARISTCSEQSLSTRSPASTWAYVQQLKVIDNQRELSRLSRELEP
Take `CC(=O)OCC1OC(n2cnc3c(Cl)nc(Cl)nc32)C(OC(C)=O)C1OC(C)=O` (stereo unspecified): the “activity change, negative = inhibition” value was inactive: 15.8%.

Take `CC(CCC(=O)O)C1CCC2C3C(O)C[C@@H]4CC(O)CC[C@@]4(C)C3CC(O)[C@]12C` (stereo partly specified): the “activity change, negative = inhibition” value was inactive: 23.5%.

For `Cc1noc(C)c1C(=O)N1CCC[C@@]2(CCN(c3ccccn3)C2)C1`, the “activity change, negative = inhibition” value was inactive: 7.82%.

With `COCCn1c(=O)c(-c2cn(C)c3ccccc23)nc2cnc(N3CCNCC3)nc21`, the “activity change, negative = inhibition” value was inactive: 5.83%.

Regarding `COc1cc(=O)n2c(c1C(=O)N(C)Cc1nccs1)CCN(Cc1ccc(Cl)cc1)CC2`, the “activity change, negative = inhibition” value is inactive: -1.82%.

As to `CC(C)(CNC(=O)c1cnn(-c2ncc3c(n2)-c2ccccc2CCC3)c1C1CC1)N1CCOCC1`, the “activity change, negative = inhibition” value is inactive: -1.11%.

As for `COc1ccc(CNc2cc(-c3cccc(NS(C)(=O)=O)c3)ncn2)c(OC)c1`, the “activity change, negative = inhibition” value is inactive: -7.81%.

On to `NC(=O)Nc1ccc(/C=C2\C=Cc3ccccc32)cc1`, for which the “activity change, negative = inhibition” value is inactive: -3.26%.

For the compound `O=C(CCc1ccc(O)cc1)c1c(O)cc(O)cc1O[C@H]1OC(CO)C(O)C(O)C1O` (stereo partly specified), the “activity change, negative = inhibition” value was inactive: -1.23%.

Take `c1ccc(C(O[C@H]2CCCN(CCc3ccc4c(c3)OCO4)C2)c2ccccc2)cc1`: the “activity change, negative = inhibition” value is inactive: -2.19%.

With `COc1ccc(CN2CCC3(CC2)c2ccccc2[C@@H](NC(=O)c2ccco2)[C@@H]3OC)c(O)c1`, the “activity change, negative = inhibition” value was inactive: 12.2%.

Consider `CN(C)c1ccc(/C=C2\CCCCC2=O)cc1`, for which the “activity change, negative = inhibition” value is inactive: 14.3%.

In the case of `COc1ccc(-c2nc3cc(F)ccc3cc2CN(C(=O)c2cccs2)C2CC2)cc1`, the “activity change, negative = inhibition” value was inactive: 2.87%.

In the case of `CC1=C(/C=C/C(C)=C/C=C/C(C)=C/C=C/C=C(C)/C=C/C=C(C)/C=C/C2=C(C)CCCC2(C)C)C(C)(C)CCC1`, the “activity change, negative = inhibition” value is inactive: 25.3%.

As for `O=C(Nc1ccccc1)[C@@H]1CC=C[C@@H]2CCN(Cc3ccc(Cl)c(Cl)c3)C(=O)[C@@H]21`, the “activity change, negative = inhibition” value was inactive: -19.5%.

For the compound `COc1ccc(-n2c(=O)c(-c3ccc(Cl)cc3)nc3cnc(N4CCOCC4)nc32)cc1`, the “activity change, negative = inhibition” value was inactive: -7.87%.

With `COc1ccccc1C(=O)N[C@@H]1c2ccccc2C2(CCN(Cc3cnn(C)c3C)CC2)[C@H]1O`, the “activity change, negative = inhibition” value is inactive: 4.37%.

For `CC(C(=O)O)c1ccc(CC2CCCC2=O)cc1` (stereo unspecified), the activity change, negative = inhibition result was “inactive”.

For `O=C1CC[C@H](O)CCN1CCSc1ccc(Br)cc1`, the “activity change, negative = inhibition” value was inactive: 9.2%.

With `CCOC(=O)C[C@H]1c2cc(F)ccc2S(=O)(=O)N1C(C)C`, the “activity change, negative = inhibition” value was inactive: 9.98%.

In the case of `Cc1c(C(=O)N(C)C2CCOC2)cnn1-c1ncc2c(n1)-c1ccccc1CCC2` (stereo unspecified), the “activity change, negative = inhibition” value is inactive: 6.04%.

For `Cc1ccccc1C(=O)NC(C)c1nnc2n1CCN(Cc1ccnc3ccccc13)CC2` (stereo unspecified), the “activity change, negative = inhibition” value is inactive: 11.6%.

For `COC(=O)c1c(OCc2cccnc2)cc(=O)n2c1CCN(C(=O)c1cccc(N(C)C)c1)CC2`, the “activity change, negative = inhibition” value was inactive: 5.93%.

`Cc1cccc(CNC(=O)c2cnn(-c3ncc(C)c(-c4ccc(F)cc4)n3)c2C)n1`: the “activity change, negative = inhibition” value is inactive: 5.96%.

Consider `C/C(=C(\CCO)SS/C(CCO)=C(\C)N(C=O)Cc1cnc(C)nc1N)N(C=O)Cc1cnc(C)nc1N`, for which the “activity change, negative = inhibition” value is inactive: -14.4%.

Turning to `CC[C@H]1OC(=O)[C@H](C)[C@@H](O[C@H]2C[C@@](C)(OC)[C@@H](O)[C@H](C)O2)[C@H](C)[C@@H](O[C@@H]2O[C@H](C)C[C@H](N(C)C)[C@H]2O)[C@](C)(O)C[C@@H](C)C(=O)[C@H](C)[C@@H](O)[C@]1(C)O`, the activity change, negative = inhibition result was “inactive”.

As to `COC(=O)C1C(O)CC[C@H]2CN3CCc4c([nH]c5ccccc45)C3C[C@H]12` (stereo partly specified), the “activity change, negative = inhibition” value is inactive: 5.5%.

For `CC[C@@H](C(=O)O)[C@@H]1O[C@@H]([C@@H](C)[C@H](O)[C@H](C)C(=O)[C@H](CC)[C@H]2O[C@]3(C=C[C@@H](O)[C@]4(CC[C@@](C)([C@H]5CC[C@](O)(CC)[C@H](C)O5)O4)O3)[C@H](C)C[C@@H]2C)[C@@H](C)C[C@@H]1C`, the “activity change, negative = inhibition” value is inactive: 13.3%.

`COc1ccccc1-c1nccc(Nc2ccc(F)cc2)n1`: the “activity change, negative = inhibition” value was inactive: 3.36%.

In the case of `O=C(Nc1cc(C(=O)NC2CCOCC2)c2c(c1)ncn2C1CCCC1)c1ccccc1`, the “activity change, negative = inhibition” value was inactive: 3.99%.

Consider `COc1cc(=O)n2c(c1C(=O)N(C)Cc1cscn1)CCN(C(=O)c1ccc(C)cc1C)CC2`, for which the “activity change, negative = inhibition” value was inactive: 7.2%.

Consider `CC(Oc1ccc(O)cc1)(P(=O)(O)O)P(=O)(O)O`, for which the “activity change, negative = inhibition” value was inactive: 21.6%.

As for `COc1cc(=O)n2c(c1C(=O)NCc1ccsc1)CCN(Cc1nc3ccccc3[nH]1)CC2`, the “activity change, negative = inhibition” value was inactive: -2.85%.

Take `Cc1c(Cl)cccc1Nc1ccccc1C(=O)O`: the “activity change, negative = inhibition” value is inactive: -7.54%.

Regarding `COc1ccccc1-c1nc(N(C)Cc2ccco2)c2ccccc2n1`, the “activity change, negative = inhibition” value was inactive: -4.32%.

Regarding `Cc1cc2c(c(-c3cnccn3)c1)OC(CNC(=O)c1ccc(-n3nc(C)cc3C)cc1)C2` (stereo unspecified), the “activity change, negative = inhibition” value is inactive: 6.62%.

On to `CN(C)c1ncc2nc(-c3ccccc3)c(=O)n(C[C@H]3CCCO3)c2n1`, for which the “activity change, negative = inhibition” value is inactive: 19.4%.

For `COc1ccc(CNc2ncnc3ccc(-c4ccc(C(=O)N(C)C)cc4)cc23)c(OC)c1`, the “activity change, negative = inhibition” value was inactive: -2.24%.

For the compound `Brc1c(Br)c(Br)c2[nH]cnc2c1Br`, the “activity change, negative = inhibition” value was inactive: 10.7% [at 75.8 µM].

For the compound `c1nc(N2CCNCC2)c2cc(-c3ccoc3)ccc2n1`, the “activity change, negative = inhibition” value is inactive: 9.71%.

For the compound `COC(=O)[C@H]1[C@H]2C[C@@H]3c4[nH]c5cc(OC)ccc5c4CCN3C[C@H]2C[C@H](OC)[C@@H]1OC`, the “activity change, negative = inhibition” value was inactive: 9.68%.

Regarding `COc1ccc(OC)c(-c2ccnc(-n3ncc(C(=O)N(C)CCO)c3C3CC3)n2)c1`, the “activity change, negative = inhibition” value was inactive: 15.2%.

For the compound `CC(C)(C)c1ccc(/C=C/C(=O)Nc2ccc3c(c2)OCCO3)cc1`, the “activity change, negative = inhibition” value was inactive: -2.16% [at 75.8 µM].

With `Cc1c(C(C)C)c(=O)n(-c2ccccc2)n1C`, the “activity change, negative = inhibition” value is inactive: 9.08%.

With `CNC(=O)[C@H]1O[C@@H](n2cnc3c(N)ncnc32)[C@H](O)[C@@H]1O`, the “activity change, negative = inhibition” value was inactive: 32.5%.

Turning to `Cc1ccc(CNc2nc(CN3CCCCC3c3cccnc3)nc3ccccc23)o1` (stereo unspecified), the “activity change, negative = inhibition” value is inactive: 21.4%.

For the origin of these results see PubChem BioAssay AID1645882 (National Center for Advancing Translational Sciences (NCATS), 2021).
